Data from PMC11680366.
These are yes or no findings as the source states them, for the method shown. In cells and extracts the contact can be indirect. Some binding calls cover weakened binding; strength is not graded here.

By UniProt entry, the sequences of proteins in these tests, tags left out.
UniProt O43143: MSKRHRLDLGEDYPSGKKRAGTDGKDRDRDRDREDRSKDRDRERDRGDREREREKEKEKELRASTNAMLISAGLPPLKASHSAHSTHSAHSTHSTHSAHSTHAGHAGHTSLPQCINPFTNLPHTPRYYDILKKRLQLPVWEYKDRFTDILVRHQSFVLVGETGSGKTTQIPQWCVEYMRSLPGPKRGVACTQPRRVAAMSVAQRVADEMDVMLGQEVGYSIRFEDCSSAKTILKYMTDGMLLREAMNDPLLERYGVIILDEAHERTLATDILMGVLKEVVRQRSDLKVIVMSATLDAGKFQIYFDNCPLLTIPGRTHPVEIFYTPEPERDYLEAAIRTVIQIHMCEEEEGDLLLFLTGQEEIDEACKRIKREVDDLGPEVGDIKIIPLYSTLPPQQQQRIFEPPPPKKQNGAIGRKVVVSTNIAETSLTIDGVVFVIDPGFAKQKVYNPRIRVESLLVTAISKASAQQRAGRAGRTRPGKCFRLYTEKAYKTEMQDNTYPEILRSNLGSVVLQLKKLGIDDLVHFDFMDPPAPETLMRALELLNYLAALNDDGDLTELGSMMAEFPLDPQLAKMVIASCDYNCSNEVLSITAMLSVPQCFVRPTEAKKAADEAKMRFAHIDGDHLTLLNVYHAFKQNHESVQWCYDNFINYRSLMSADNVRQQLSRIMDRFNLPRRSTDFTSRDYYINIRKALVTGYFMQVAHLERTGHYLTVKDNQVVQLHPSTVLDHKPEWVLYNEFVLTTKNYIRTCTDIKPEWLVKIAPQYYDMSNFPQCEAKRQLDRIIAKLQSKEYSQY
UniProt Q7Z434: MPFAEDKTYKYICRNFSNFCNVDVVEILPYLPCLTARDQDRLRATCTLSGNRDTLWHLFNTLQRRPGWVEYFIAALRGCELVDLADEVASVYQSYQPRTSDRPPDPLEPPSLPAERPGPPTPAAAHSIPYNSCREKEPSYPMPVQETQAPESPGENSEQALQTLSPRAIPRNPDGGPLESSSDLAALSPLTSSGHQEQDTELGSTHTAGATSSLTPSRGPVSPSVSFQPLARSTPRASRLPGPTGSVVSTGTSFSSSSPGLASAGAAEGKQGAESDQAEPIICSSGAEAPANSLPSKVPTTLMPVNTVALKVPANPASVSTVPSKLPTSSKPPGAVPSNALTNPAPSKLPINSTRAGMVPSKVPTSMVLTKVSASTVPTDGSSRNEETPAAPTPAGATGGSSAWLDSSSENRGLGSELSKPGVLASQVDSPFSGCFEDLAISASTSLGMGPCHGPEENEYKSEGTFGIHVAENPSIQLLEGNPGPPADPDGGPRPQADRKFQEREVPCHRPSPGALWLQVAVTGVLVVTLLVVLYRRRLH

How the values were obtained:
[1] = target: Myc-DHX15 (DEAH-box polypeptide 15) (human) (UniProt O43143); test: co-IP; as a1, but mock-treated HT1080 cells expressing Myc-DHX15 (no 2-5A); Myc-tag beads; Rig-I and MAVS probed by immunoblot
[2] = target: Myc-DHX15 (DEAH-box polypeptide 15) (human) (UniProt O43143); test: condition: only cells transfected with control RNAs (without RL RNAs); co-IP; as a1, but HT1080 cells expressing Myc-DHX15 transfected with control small RNAs (Ctrl RNAs, 2 ug/mL) for 8 h; Myc-tag beads; Rig-I and MAVS probed by immunoblot
[3] = target: Myc-DHX15 (DEAH-box polypeptide 15) (human) (UniProt O43143); test: co-IP; HT1080 cells expressing Myc-DHX15 for 24 h, then transfected with 2-5A (10 uM) or RL RNAs (2 ug/mL) for 8 h; 500 ug of lysate (0.5% NP-40, 90 mM KCl, 20 mM Tris pH 7.5) on Myc-tag beads, 4 °C, 16 h; Rig-I and MAVS detected by immunoblot

## Mitochondrial antiviral signaling (MAVS) (from UniProt Q7Z434 1-540)
[1]
  binding: no binding (condition: mock-treated cells (without 2-5A))
[2]
  binding: no binding
[3]
  binding: binds

B1: Retinoic acid-inducible gene I (Rig-I) (protein, UniProt O95786 1-925)
chain: MTTEQRRSLQAFQDYIRKTLDPTYILSYMAPWFREEEVQYIQAEKNNKGPMEAATLFLKFLLELQEEGWFRGFLDALDHAGYSGLYEAIESWDFKKIEKLEEYRLLLKRLQPEFKTRIIPTDIISDLSECLINQECEEILQICSTKGMMAGAEKLVECLLRSDKENWPKTLKLALEKERNKFSELWIVEKGIKDVETEDLEDKMETSDIQIFYQEDPECQNLSENSCPPSEVSDTNLYSPFKPRNYQLELALPAMKGKNTIICAPTGCGKTFVSLLICEHHLKKFPQGQKGKVVFFANQIPVYEQQKSVFSKYFERHGYRVTGISGATAENVPVEQIVENNDIIILTPQILVNNLKKGTIPSLSIFTLMIFDECHNTSKQHPYNMIMFNYLDQKLGGSSGPLPQVIGLTASVGVGDAKNTDEALDYICKLCASLDASVIATVKHNLEELEQVVYKPQKFFRKVESRISDKFKYIIAQLMRDTESLAKRICKDLENLSQIQNREFGTQKYEQWIVTVQKACMVFQMPDKDEESRICKALFLYTSHLRKYNDALIISEHARMKDALDYLKDFFSNVRAAGFDEIEQDLTQRFEEKLQELESVSRDPSNENPKLEDLCFILQEEYHLNPETITILFVKTRALVDALKNWIEGNPKLSFLKPGILTGRGKTNQNTGMTLPAQKCILDAFKASGDHNILIATSVADEGIDIAQCNLVILYEYVGNVIKMIQTRGRGRARGSKCFLLTSNAGVIEKEQINMYKEKMMNDSILRLQTWDEAVFREKILHIQTHEKFIRDSQEKPKPVPDKENKKLLCRKCKALACYTADVRVIEECHYTVLGDAFKECFVSRPHPKPKQFSSFEKRAKIFCARQNCSHDWGIHVKYKTFEIPVIKIESFVVEDIATGVQTLYSKWKDFHFEKIPFDPAEMSK
[1]
  binding: no binding (condition: mock-treated cells (without 2-5A))
[2]
  binding: no binding
[3]
  binding: binds
